# Laboratory results: PubChem BioAssay AID686978 (National Center for Advancing Translational Sciences (NCATS), 2013)
# About 64,000 (15%) of roughly 420,000 compounds were called active. Inconclusive means that the source gave no clear call. Such entries were picked first, then a sample of the others. The call rests on the fitted dose curve; in most records, active means well fitted inhibition curve with a large enough effect; inconclusive means small, poorly fitted or top-dose-only effect; inactive means flat fitted curve, though single readings scatter. No potency is given beside an inconclusive call; the fits are too rough.
# Test: qHTS for Inhibitors of human tyrosyl-DNA phosphodiesterase 1 (TDP1): qHTS in cells in absence of CPT; further: nearly all actives have a fitted effect of over 55% in size
# Conditions: DT40 Tdp1-/- hTDP1 cells, no CPT, ATP luminescence, 48 h; activity change, negative = growth inhibition: at 46.2 µM (top of the series) unless noted
# Method in brief: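 Stably hTDP1-transfected Tdp1-null chicken DT40 cells were treated with library compounds minus camptothecin and grown for at least 48 hr at 37 °C, after which cellular ATP was quantified by luminescence.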
# On the % scale 0 is the no-effect control and ±100 the full control effect; potency means the concentration at half of the fitted maximal effect; tags describe the fitted curve by direction and shape.
Compound,Potency,"activity change, negative = growth inhibition"
Cc1cc(-c2nnc(SCC(=O)Nc3ccc(F)cc3)n2N)n[nH]1,inactive,–
COC(=O)c1c(C)oc(C)c1S(=O)(=O)NCc1ccc(Cl)cc1,"inconclusive [inhibitor, partial curve]",–
Cc1ccc2cc(C)c3nnc(SCC(=O)N4CCN(C(=O)c5ccco5)CC4)n3c2c1,"inconclusive [inhibitor, single point]",–
Cc1cc(NC(=O)Cn2c(=O)oc3cc(S(=O)(=O)N4CCCC4)ccc32)ccc1Br,active: 14.6 µM,–
CCCOC(=O)c1ccc(NC(=O)C(=O)NCC2CCCO2)cc1 (stereo not drawn),"inconclusive [inhibitor, single point]",–
CCCOc1ccc(C2C(C(=O)c3ccc(C)o3)=C(O)C(=O)N2Cc2ccco2)cc1 (stereo not drawn),"inconclusive [inhibitor, single point]",–
C#CCNC(=O)C1=C[C@H](c2csc3ccccc23)C[C@H](OCc2ccc(CO)cc2)O1,active: 16.4 µM,–
O=C(CNC(=O)C1CCCCC1)NC1=NCCS1,"inconclusive [inhibitor, single point]",–
O=C(c1cc([N+](=O)[O-])ccc1N1CCOCC1)N1CCN(S(=O)(=O)c2cc(Cl)ccc2Cl)CC1,"inconclusive [inhibitor, single point]",–
CN(C)Cc1c(C(=O)N/N=C/c2cccs2)nnn1-c1nonc1N,inactive,–
Cc1ccc(C)c(S(=O)(=O)Nc2cc(SCC(=O)O)c(O)c3ccccc23)c1,active: 6.51 µM,–
CCOC(=O)c1cc(-c2ccccc2)n(CC2CC(c3ccc(OC)cc3)=NO2)n1 (stereo not drawn),active: 23.1 µM,–
Cc1nc(SCc2cccc(F)c2)c2oc3ccccc3c2n1,"inconclusive [inhibitor, single point]",–
Clc1ccc(/C=N/c2c(-c3ccco3)nc3ccccn23)cc1,"inconclusive [inhibitor, single point]",–
COc1ccc(CCNC(=O)C2CCCN(S(=O)(=O)c3ccc4c(c3)oc(=O)n4C)C2)cc1OC (stereo not drawn),"inconclusive [inhibitor, single point]",–
Cc1cccc(C)c1OCCCCc1c(C)n[nH]c1C,"inconclusive [inhibitor, partial curve]",–
CCOC(=O)N1CCN(C(=O)C[C@@H]2C[C@@]3(C(=O)OCC)CCCC=C3N(CCC3=CCCCC3)C2=O)CC1,active: 16.4 µM,–
CCOc1cccc(-c2cc(C(=O)N3N=C(C)CC3(O)C(F)F)c3ccccc3n2)c1 (stereo not drawn),"inconclusive [inhibitor, single point]",–
CCc1ccccc1NC(=S)NCCSc1ccc(Cl)cc1,"inconclusive [inhibitor, single point]",–
O=C(CNC(=O)c1cccc(F)c1)N/N=C/c1cc(Br)ccc1OCc1ccccc1,"inconclusive [inhibitor, single point]",–
COCCOc1cc(NC(=O)c2ccccc2)c(Cl)cc1Cl,"inconclusive [inhibitor, single point]",–
O=C(c1ccc(S(=O)(=O)c2cccc(Cl)c2)c([N+](=O)[O-])c1)N1CCN(c2ccccn2)CC1,active: 2.31 µM,–
Cc1ccc(CCNC(=O)CN(C)S(=O)(=O)c2ccc3c(c2)c(=O)n(C)c(=O)n3C)cc1,"inconclusive [inhibitor, single point]",–

Compound,Potency,"activity change, negative = growth inhibition"
COC(=O)c1cn(C(=O)c2cc(OC)c(OC)c(OC)c2)c2ccccc12,"inconclusive [inhibitor, single point]",–
O=c1c2[nH]c3cccc(Cl)c3c2ncn1Cc1ccncc1,"inconclusive [inhibitor, single point]",–
Cc1ccc(CNC(=O)CCc2cn(Cc3ccc(C)cc3)c3ccccc23)cc1,inactive,–
CC(=O)c1cc2cccc(OC3(C)CCN(Cc4ccc5ccccc5c4)C3)c2o1 (stereo not drawn),"inconclusive [inhibitor, single point]",–
N#CC1=C(N)Oc2cc3ccccc3cc2C1c1cccnc1 (stereo not drawn),active: 7.31 µM,–
Cc1ccc(OCc2n[nH]c(=S)n2N)cc1C,inactive,–
C/C(=N/NC(=O)CN1CCN(Cc2ccccc2Cl)CC1)c1ccncc1,inactive,–
COc1ccccc1CCn1c(=O)c(-c2ccc(F)cc2)nc2cncnc21,inactive,–
CC(C)CC(C(=O)OCC(=O)c1c(N)n(C)c(=O)n(C)c1=O)N1C(=O)c2ccccc2C1=O (stereo not drawn),–,inconclusive: -31.3% [inhibitor]
CC1(C(=O)NCc2ccccc2)CSCC(=O)N1Cc1cccc(C(F)(F)F)c1 (stereo not drawn),"inconclusive [inhibitor, single point]",–
CCOC1=C2CN(S(=O)(=O)c3ccc(C)cc3)[C@H](c3ccccc3)C[C@@H]2N(S(=O)(=O)c2ccccc2C)[C@H](c2ccccc2)C1,"inconclusive [inhibitor, partial curve]",–
COc1ccc(-c2ccc3oc(-c4ccsc4)cc3c2)cc1,inactive,–
CCOC(=O)c1c(C)sc(-c2c(-c3cccc(Cl)c3)[nH]c3c2c(=O)n(C)c(=O)n3C)c1O,"inconclusive [inhibitor, single point]",–
Cc1cc(C)c(Cn2c(=O)n(CCCCC(=O)NCc3ccccc3Cl)c(=O)c3ccccc32)c(C)c1,inactive,–
O=C(CCCC(=O)N1CCN(c2ccccc2F)CC1)N1CCN(c2ccccc2F)CC1,"inconclusive [inhibitor, single point]",–
O=C(CCSCCC(=O)Nc1c(F)c(F)c(F)c(F)c1F)Nc1c(F)c(F)c(F)c(F)c1F,"inconclusive [inhibitor, single point]",–
Oc1ccc(C[C@@H](CN2CCCC2CN2C(=S)NC[C@@H]2Cc2ccccc2)N2C[C@H](Cc3ccccc3)N(CC3CCCCCC3)C2=S)cc1 (stereo partly drawn),"inconclusive [inhibitor, single point]",–
Cc1ccc(C(=O)NCCc2c[nH]c3ccccc23)s1,"inconclusive [inhibitor, single point]",–
Cn1c(NCc2ccco2)nc2c1c(=O)n(Cc1ccc(Cl)cc1Cl)c(=O)n2C,"inconclusive [inhibitor, partial curve]",–
Cc1c(C(=O)NCc2ccccc2CN2CCCC2)oc2c(F)cccc12,"inconclusive [inhibitor, single point]",–
Cc1ccc(Cn2c(C(CO)Nc3nc(-c4ccc(F)cc4)cs3)nc3ccccc32)cc1 (stereo not drawn),active: 16.4 µM,–
O=S(=O)(Nc1ccc(N2CCCCC2)cc1)c1ccccc1F,"inconclusive [inhibitor, single point]",–
COc1cccc(NC(=O)c2csnn2)c1,inactive,–

Compound,Potency,"activity change, negative = growth inhibition"
CC1(Cc2ccc(Cl)s2)C(=O)Nc2c(Cl)ccc(Cl)c21 (stereo not drawn),"inconclusive [inhibitor, single point]",–
CCOC(=O)C1=C(c2ccccc2)NC(=S)NC1c1ccc(Cl)cc1 (stereo not drawn),"inconclusive [inhibitor, partial curve]",–
COc1cc(C)ccc1OCCOCCOc1ccc(C)cc1[N+](=O)[O-],"inconclusive [inhibitor, single point]",–
CCC(=O)c1ccc(OCC(=O)N2CCN(c3ncccn3)CC2)cc1,inactive,–
CN(CC(=O)Nc1cc(S(=O)(=O)N2CCCCCC2)ccc1Cl)Cc1ccc2c(c1)OCO2,"inconclusive [inhibitor, single point]",–
CC1CC(C)CN(S(=O)(=O)c2ccc3c(c2)CC(C)N3C(=O)C2CC2)C1 (stereo not drawn),active: 14.6 µM,–
CCc1ccccc1N(C)S(=O)(=O)c1ccc2c(c1)C(C)(C)C(=O)N2C,"inconclusive [inhibitor, single point]",–
COc1ccc2c(c1)c1nc3n(c(=O)c1n2CC(=O)Nc1ccccc1)CCS3,inactive,–
COC(=O)c1cccc(NC(=O)CSc2nnc(C)n2C)c1,inactive,–
Cc1c(C(=O)N(C)C)sc2c1c(=O)n(-c1ccc(F)cc1)c(=O)n2Cc1ccccc1C#N,inactive,–
Nn1c(SCC(=O)Nc2ccc(S(N)(=O)=O)cc2)nnc1C(F)(F)F,inactive,–
CC(C)N(C)Cc1nnnn1CC(=O)NCc1cc(F)cc(C(F)(F)F)c1,inactive,–
CCOC(=O)C1=C(C)N(C)C(=O)NC1c1c(C)nn(-c2ccc(C)cc2)c1Cl (stereo not drawn),"inconclusive [inhibitor, single point]",–
C[C@]12CCC3c4ccc(O)cc4CCC3C1CC/C2=N\N (stereo partly drawn),"inconclusive [inhibitor, partial curve]",–
COCCNC(=S)N1CCC(C(=O)c2ccc(F)cc2)CC1,"inconclusive [inhibitor, single point]",–
C[C@H](CO)N1C[C@H](C)[C@@H](CN(C)S(=O)(=O)c2ccccc2)Oc2ccc(NC(=O)Nc3ccccc3)cc2C1=O,"inconclusive [inhibitor, single point]",–
Cc1ccc(NC(=O)N(Cc2cccnc2)Cc2ccco2)cc1C,inactive,–
COc1ccccc1C(=O)N/C(=C\c1cn(C)c2ccccc12)C(=O)NCCN1CCOCC1,inactive,–
Cc1cc2c(c(-c3nc4ccccc4s3)c1)OC(CNC(=O)CCc1cccnc1)C2 (stereo not drawn),active: 0.13 µM,–
COC(=O)C1C(=O)CC(C)(O)C(C(=O)OC)C1c1ccc2c(c1)OCO2 (stereo not drawn),inactive,–
CC(C)CN(C(=O)c1cccc(S(=O)(=O)N2CCN(c3ccc(F)cc3)CC2)c1)C1CCS(=O)(=O)C1 (stereo not drawn),"inconclusive [inhibitor, single point]",–
O=C(Nc1ccc(S(=O)(=O)Nc2nccs2)cc1)/C(=C/c1ccccc1Cl)NC(=O)c1ccccc1,inactive,–
